# “And” between values parts separate entries of the source, which are not always exact repeats. Equal entries are not always repeated. Among all 360,000 compounds or so, about 17,000 (4.7%) were called active. This list was built around the results that the source calls inconclusive (neither active nor inactive); the mix of calls is not that of the screen. No stated cut-off is given here; in the data, active means activity change below about -50%; inconclusive means mostly about -30% to -49%; inactive means weaker than that.
# Assay: qHTS for Inhibitors of Inflammasome Signaling: IL-1-beta AlphaLISA Primary Screen
# Details: THP-1 LPS/ATP IL-1B secretion, 16 h; at 57.5 µM, active compounds read low
# Outline: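 THP-1 cells pretreated 1 hr with compounds (up to 57.5 uM final), then stimulated with LPS (250 ng/mL final) plus ATP (1.25 mM final); secreted IL-1B measured by AlphaLISA after 16 hr, decreased signal indicating inhibition.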
# On the % scale 0 is the no-effect control and ±100 the full control effect.
row,SMILES,activity change
1,CCN(C(=O)COC(=O)c1cc(S(=O)(=O)N2CCOCC2)ccc1F)C1CCS(=O)(=O)C1 (stereo not drawn),inconclusive: -35.8%
2,O=S(=O)(c1cccs1)N1CN(C2CCCCC2)c2nc3ccccc3nc21,inconclusive: -37.2%
3,N#CC1=C(N)Oc2cc(N)ccc2C1c1ccc(Cl)cc1 (stereo not drawn),active: -74.7%
4,Cc1cccc(NC(=O)/C(C#N)=C\c2cc(C)n(-c3ccc(C(=O)O)cc3)c2C)c1,active: -78.3%
5,O=C(CN1CCCCCC1)Nc1ccc(Oc2ccccc2)cc1,inconclusive: -42.4%
6,COc1ccc(-c2csc(NC(=O)CCS(=O)(=O)c3ccccc3)n2)c(OC)c1,active: -87.6%
7,COc1ccc2nc(NC3=NC(c4ccccc4)CC(=O)N3)nc(C)c2c1 (stereo not drawn),inactive: 14.8%
8,COCCCNC(=O)CN1C(=O)COc2ccc(S(=O)(=O)N3CC(C)CC(C)C3)cc21 (stereo not drawn),inconclusive: -32.2%
9,Cc1ccc(CN(Cc2cc3cccc(C)c3[nH]c2=O)C(=S)NCCCN(C)C)cc1,active: -77.5%
10,CN(C(=O)CN1CCN(c2ccc([N+](=O)[O-])cn2)CC1)c1ccccc1,inconclusive: -31.4%
11,CC1(C(=O)Nc2ccc3c(c2)OCO3)CCN1Cc1csc2ccccc12 (stereo not drawn),inconclusive: -44.1%
12,Cc1ccc2c(c1)c1c3n2CCN(CC(N)=O)C3CCC1 (stereo not drawn),inactive: -1.68%
13,COc1cccc(/C=C/C(=O)c2ccc(NS(=O)(=O)c3ccc(C)cc3)cc2)c1,active: -99.4%
14,O=C(Nc1cccc([N+](=O)[O-])c1)NN1CCCCCC1,inconclusive: -35.6%
15,CC(=O)N(CCc1cccc(C)c1)Cc1cc2ccc(C)cc2[nH]c1=O,inconclusive: -31.9%
16,COc1ccccc1NC1C=CS(=O)(=O)C1 (stereo not drawn),inconclusive: -30.5%
17,O=C(CNc1cccc(C(F)(F)F)c1)Nc1cccc(S(=O)(=O)N2CCCC2)c1,inconclusive: -42%
18,CCOc1ccc(-n2c(=O)c3sccc3n(Cc3cccc([N+](=O)[O-])c3)c2=O)cc1,inactive: 28.7%
19,CCCN1/C(=C2/SC(=S)N(CC)C2=O)C=Cc2ccccc21,inactive: -28.7%
20,Cc1cc(C)nc(/N=C(\N)Nc2ccc(F)c([N+](=O)[O-])c2)n1,active: -92.4%
21,O=C(c1ccccc1)c1ccc(OCCOCCN2CCN(Cc3ccccc3)CC2)cc1,inconclusive: -48.8%

row,SMILES,activity change
1,CN(C)S(=O)(=O)c1ccc(NC(=O)COC(=O)CC2CC3CCC2C3)cc1 (stereo not drawn),inactive: 0%
2,CCc1cc(C(=O)NC2CCCc3c2cnn3-c2cccc(C)c2C)n(C)n1 (stereo not drawn),inconclusive: -32.4%
3,COc1ccc(C)cc1Nc1n[n+](-c2ccccc2)c(-c2c(OC)ccc3ccccc23)s1,active: -74.6%
4,C[C@H](CO)N1C[C@H](C)[C@@H](CN(C)C(=O)Nc2ccccc2)Oc2ncc(C#CC3CCCCC3)cc2C1=O,inconclusive: -46.6%
5,COc1ccc(C2(c3ccc(OC)cc3)NC(=O)N(CC(=O)N(C)c3ccccc3)C2=O)cc1,inconclusive: -45.4%
6,COc1ccc(-c2cn3cccnc3n2)cc1NC(=O)c1cccs1,inconclusive: -31.8%
7,CC(=O)Nc1ccc(Nc2ncnc3c2cnn3-c2ccc(C)cc2C)cc1,inconclusive: -42.6%
8,Cc1sc(N/N=C/c2cccnc2)nc1-c1ccccc1,inconclusive: -31.1%
9,COCCC1CCCCN1C(=O)c1cc(COc2ccc(C)nc2)on1 (stereo not drawn),inconclusive: -42.3%
10,O=C(c1ccc(CS(=O)c2ccccc2Cl)o1)N1CCN(C2CCCCC2)CC1 (stereo not drawn),inactive: 5.97%
11,C#CCOc1nc(C)cc(C)c1S(=O)(=O)c1ccccc1C,active: -55.9%
12,CCc1noc(C)c1C(=O)Nc1nc(-c2ccc(OC)c(OC)c2)cs1,inconclusive: -32.5%
13,N#C/C(=C/c1ccc(-c2ccccc2)o1)c1nc(-c2cccs2)cs1,inactive: 0%
14,Cc1cc(C)c2nc(-c3ccccn3)cc(C(=O)NCCc3ccc(S(N)(=O)=O)cc3)c2c1,inactive: 14.5%
15,COc1ccc(NS(=O)(=O)c2cc(NC(=O)c3nn(C)c(=O)c4ccccc34)ccc2OC)cc1,inconclusive: -40.3%
16,Cc1ccc(S(=O)(=O)N2CCOC23CCN(C(=O)c2ccc(Cl)cc2Cl)CC3)cc1,inconclusive: -37.6%
17,C[C@H]1CN([C@@H](C)CO)C(=O)Cc2cc(NC(=O)CCC(F)(F)F)ccc2O[C@H]1CN(C)Cc1ccc(C(F)(F)F)cc1,active: -68.7%
18,O=C(CSc1nc2ccccc2c(=O)n1CCCN1CCOCC1)Nc1ccc(F)c(Cl)c1,inconclusive: -49.8%
19,COc1cc2c(cc1NC(=O)C(C)Sc1cccc[n+]1[O-])oc1ccccc12 (stereo not drawn),active: -54.9%
20,CCOc1cnc(-c2c(-c3ccccc3Cl)noc2C)o1,inconclusive: -32.5%
21,Cc1ccc(C)c(OCc2ccc(C(=O)NN)o2)c1,inconclusive: -40.5%

row,SMILES,activity change
1,COc1cc(N)c(Cl)cc1C(=O)OCC(=O)N(C)C1CCCCC1,inactive: -11.1%
2,Cc1cccc2sc(N(CCCN(C)C)C(=O)c3ccc(S(=O)(=O)N4CCc5ccccc5C4)cc3)nc12,inconclusive: -31.9%
3,CC(=O)Oc1ccccc1Cn1c(C)c(C(=O)NCc2ccc(Cl)c(Cl)c2)sc1=O,inconclusive: -30.5%
4,COc1ccc(S(=O)(=O)Nc2ccccc2C(=O)Nc2nc(-c3ccc(F)cc3)cs2)cc1OC,inconclusive: -32.6%
5,CCCc1ccc(C2=Nn3c(nnc3C(C)C)SC2)cc1,active: -90.8%
6,CCOc1ccc(Cc2nnc(SCC(=O)Nc3ccc(C(C)=O)cc3)[nH]c2=O)cc1,inactive: 17.9%
7,Cc1ccc(Cc2nc3ccccc3n2C(CCc2ccccc2)c2nc3ccccc3[nH]2)cc1 (stereo not drawn),active: -69.1%
8,CC(=O)OCC(=O)[C@@]1(O)CC[C@H]2[C@@H]3CCC4=CC(=O)CC[C@]4(C)[C@H]3[C@@H](O)C[C@@]21C,inconclusive: -41.5% and inconclusive: -40%
9,CC(C)(C)c1ccccc1OCCCCCn1ccnc1,active: -98%
10,O=C1C2CCCCN2C(=O)N1CCCCN1CCN(c2cccc(Cl)c2)CC1 (stereo not drawn),inactive: 3.16%
11,CC(=O)C(Cc1ccccc1)NC(=O)CN1CCN(Cc2ccccc2)CC1 (stereo not drawn),inactive: -9.45%
12,O=C(CNC(=O)C1CCCCC1)OCn1nnc2ccccc2c1=O,inactive: 6.16%
13,CCOC(=O)[C@H]1[C@H]2COc3ccc(OC)cc3[C@@H]2N2C(=O)c3ccc(Cl)cc3NC(=O)[C@@]12C,inactive: -11.1%
14,OCCN1CCN(C(=S)Nc2ccccc2)CC1,inactive: 5.22%
15,COc1ccccc1-c1ccc(=O)n(CC(=O)NC2CCc3ccccc32)n1 (stereo not drawn),inconclusive: -39.5%
16,O=C(NC(=S)Nc1ccc2c(c1)OCCO2)c1ccccc1F,inconclusive: -46.7%
17,N#CC(c1ccc(O)cc1)c1ncc(C(F)(F)F)cc1Cl (stereo not drawn),inactive: 20.7%
18,COc1ccccc1N1CC=C(c2cccc([N+](=O)[O-])c2)NC1=O,inconclusive: -30.8%
19,CCOC(=O)[C@]12CCC=C1N(Cc1ccc(Cl)cc1Cl)C(=O)[C@H](CC(=O)N1CCCCC1)C2,inactive: 12.7%
20,CC1(C)CC2CC(C)(CN2C(=S)Nc2ccccc2F)C1 (stereo not drawn),inactive: 27.3%
21,Cc1ccc(CNC(=O)Nc2nnc([C@@H]3C[C@H](O)[C@@H](CO)O3)s2)cc1,inactive: -0.57%

row,SMILES,activity change
1,COC(=O)C1=C(C)NC(C)=C(C(=O)OC)C1C(=O)OCC(=O)Nc1ccc(C(C)=O)cc1,inconclusive: -42.7%
2,Cc1sc2ncnc(NCC(c3ccccc3)N(C)C)c2c1C (stereo not drawn),inconclusive: -37.1%
3,CC(=O)Nc1ccc(NC(=O)c2cc(-c3ccc(C)c(C)c3O)n[nH]2)cc1,inconclusive: -37.4%
4,O=C(CC1C(=O)NCCN1C(=O)Nc1ccc(C(F)(F)F)cc1)Nc1ccc(F)cc1 (stereo not drawn),inconclusive: -34%
5,C/C(CCc1ccc2c(c1)OCO2)=N\NC(=O)c1ccccc1,inconclusive: -40.2%
6,COC(=O)c1ccccc1-c1ccc(C(c2c(C)[nH][nH]c2=O)c2c(C)[nH][nH]c2=O)o1,inconclusive: -41.5%
7,CS(=O)(=O)N1CCC(C(=O)NCc2ccccc2)CC1,inconclusive: -37.3%
8,CC(C)N1CC(C(=O)Nc2ccc(F)c(Cl)c2)CC1=O (stereo not drawn),inconclusive: -34.8%
9,CCc1nc2ccc(C(=O)NCCCn3ccnc3)cn2c1N(C)CCCc1ccccc1,inconclusive: -49.8%
10,COc1ccccc1-n1cnnc1SCC(=O)NCc1cccs1,inconclusive: -35.4%
11,COc1cccc(CNc2ccc(F)c(Cl)c2)c1O,inconclusive: -33.3%
12,COc1ccc(-n2c(SCC(=O)NCCCN3CCCC3=O)nnc2C(C)N2CCCCC2)cc1 (stereo not drawn),inconclusive: -32.8%
13,CN(Cc1ccco1)C(=O)C1CCCN(c2ncnc3c2nc2n3CCCCC2)C1 (stereo not drawn),inactive: 37.6%
14,CC(C)(C)NCc1cc(Br)ccc1OCc1cccs1,active: -58.9%
15,Cc1ccccc1OCC(=O)N/N=C/c1cccc(Oc2ccc([N+](=O)[O-])cc2[N+](=O)[O-])c1,active: -96.4%
16,COc1ccc2c3c([nH]c2c1)[C@H]1C[C@H]2[C@H](C[C@@H](O)[C@H](OC)[C@H]2C(=O)O)CN1CC3,active: -81.6%
17,F[B-](F)(F)COCc1ccccc1Br,inconclusive: -41.6%
18,O=C(NC1CCCCC1)C(c1ccccn1)N(C(=O)Cc1cccs1)c1ccc(Cl)cc1 (stereo not drawn),inconclusive: -37.6%
19,CCSC1=C(C#N)C(c2cccc(Br)c2)CC(=O)N1 (stereo not drawn),inconclusive: -33.9%
20,Cc1cc[n+](-c2nc3ccccc3nc2C(=C=[N-])C#N)cc1,inconclusive: -37.5%
